Results on 72 compounds are retold here after PubChem BioAssay AID488969 (Vanderbilt High Throughput Screening Facility, 2010).

Over roughly 110,000 compounds, “z-score” has its median near -0.1; the highest 2% begin near 2. This is one part of the list. Calls of active or inactive are those of the source.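 How the source made its calls: active means z-score in the third read window above 3 or below -3; inactive means the rest.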

The target of the experiment is Metabotropic glutamate receptor 8 (Rattus norvegicus) (UniProt P70579). Kind of experiment: rat mGluR8 modulators via GIRK flux, primary screen, cell-based, thallium flux, HTS (AID 488969). Particulars: HEK293 rat mGluR8, GIRK (G protein-gated inwardly rectifying potassium channel) thallium flux, FluoZin2; at 10 µM; stronger effect = higher value; submaximal glutamate (EC20) added with thallium.
UniProt P70579, sequence (P70579 whole entry, looked up): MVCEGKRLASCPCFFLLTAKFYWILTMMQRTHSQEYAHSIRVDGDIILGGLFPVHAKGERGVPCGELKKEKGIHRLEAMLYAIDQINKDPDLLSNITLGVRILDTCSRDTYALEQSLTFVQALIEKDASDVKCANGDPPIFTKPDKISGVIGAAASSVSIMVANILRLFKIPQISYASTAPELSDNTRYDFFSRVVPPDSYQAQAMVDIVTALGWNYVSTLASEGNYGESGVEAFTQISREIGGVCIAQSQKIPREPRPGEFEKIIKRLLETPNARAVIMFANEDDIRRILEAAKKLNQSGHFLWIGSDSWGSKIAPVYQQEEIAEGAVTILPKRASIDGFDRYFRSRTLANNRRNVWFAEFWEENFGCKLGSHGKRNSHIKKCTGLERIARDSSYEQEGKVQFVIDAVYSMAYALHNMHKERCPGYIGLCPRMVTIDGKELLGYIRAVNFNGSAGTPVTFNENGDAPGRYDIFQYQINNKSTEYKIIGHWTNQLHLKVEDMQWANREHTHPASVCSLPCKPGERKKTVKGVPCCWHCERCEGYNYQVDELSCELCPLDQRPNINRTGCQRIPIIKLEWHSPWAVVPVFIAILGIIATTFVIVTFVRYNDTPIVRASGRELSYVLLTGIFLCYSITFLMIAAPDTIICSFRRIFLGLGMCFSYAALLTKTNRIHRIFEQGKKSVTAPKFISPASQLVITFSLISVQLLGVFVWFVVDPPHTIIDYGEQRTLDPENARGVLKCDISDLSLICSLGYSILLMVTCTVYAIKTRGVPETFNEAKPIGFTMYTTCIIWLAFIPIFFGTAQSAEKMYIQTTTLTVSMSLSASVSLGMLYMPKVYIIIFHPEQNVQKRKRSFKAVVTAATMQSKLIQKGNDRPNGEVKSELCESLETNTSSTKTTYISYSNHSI
Consider `Cc1cccc(NC(=O)c2cccc(NS(=O)(=O)c3ccc(Cl)cc3)c2)c1`, for which the z-score is -0.115.
`C=CCn1c(O)c(CN2CCOCC2)c(C)c(C#N)c1=O` registered a z-score of 1.14.
For the compound `CCOC(=O)c1cc(-c2ccccc2)nc2c1c(C)nn2-c1ccccn1`, the z-score came to 0.111.
As to `COc1ccc(/C=N\NS(=O)(=O)c2ccc(Br)cc2)cc1COc1ccccc1[N+](=O)[O-]`, the z-score turned out to be 0.824.
With `OCCNc1nc(Nc2ccccc2)nc(Nc2ccccc2)n1`, the z-score was -0.514.
As for `O=C(NNc1nc2ccccc2s1)C1CC1`, the figure is 0.333; as for `CC(C)NC(=O)Cc1ccc(Br)cc1`, 0.103.
In the case of `CCOC(=O)c1ccc(NCc2ccc(N(C)C)cc2)cc1` it was 0.158; in that of `CC(C)Oc1ccc(C(CC(=O)NCc2ccco2)c2ccccc2)cc1` (configuration not stated), -0.795.
Regarding `CCCCCCCCSc1nnc(-c2ccc(OC)cc2)o1`, the z-score was -0.194.
In the case of `O=C(COC(=O)CCc1nc2ccccc2s1)Nc1nc(-c2ccccc2)cs1`, the z-score is -0.225.
The compound `Cn1cccc1/C=N/n1cnnc1` displayed a z-score of -0.0959.
In turn, `CCC(C)NC(=O)CSC1=Nc2ccccc2C2=NC(CC(=O)NCc3ccc(F)cc3)C(=O)N12` (configuration not stated) returned a z-score of -0.906.
For the compound `Cn1nnnc1SCC(=O)NCc1cccs1`, the z-score is -0.0581.
Turning to `O=C(CSc1ccc2nnc(-c3ccccc3)n2n1)NCc1ccc2c(c1)OCO2`, the z-score amounted to 0.0575.
With `COc1ccc(NC(=O)Nc2cc3oc4ccccc4c3cc2OC)cc1`, the z-score stood at 0.008.
As for `CCc1nnc(NC(=O)CSc2nnc(-c3c[nH]c4ccccc34)n2CC)s1`, the figure is active: 5.79.
The compound `Cn1c(=O)[nH]c(=O)c2c1nc(N1CCOCC1)n2CCSc1ncccn1` yielded a z-score of 0.419.
`COC(=O)C1CC(c2c(OC)cc(OC)cc2OC)=NO1` (configuration not stated) had a z-score of -0.0294.
For the compound `S=C(Nc1cccc(Cl)c1)NC1CCCCC1`, the z-score came out at 0.0383.
As for `COc1ccc(OC)c(-c2csc(NC(=O)CSc3ccc([N+](=O)[O-])cc3)n2)c1`, the figure is -0.149; as for `O=C(O)CSCC(=O)Nc1cccc(C(F)(F)F)c1`, -0.115.
As for `COc1ccc(NC(=O)CC2C(=O)OCC3CCCCN32)cc1Cl` (configuration not stated), the figure is -0.0382; as for `Cc1ccc(OCC(=O)N/N=C/c2cc([N+](=O)[O-])ccc2N2CCCCC2)cc1`, 0.028; as for `Cc1[nH]c(C)c2c(=O)n(-c3ccccc3)ncc12`, -0.309.
The compound `C/C(=N\NC(=O)c1c(Cl)cnn1C)c1ccc(NC(=O)c2ccncc2)cc1` yielded a z-score of 0.0454.
`O=S(=O)(NCc1ccco1)c1cccc2cccnc12` displayed a z-score of -0.0649.
In the case of `CCOC(=O)N1CCC(NC(=O)c2ccc(CS(=O)(=O)c3ccccc3C)o2)CC1`, the z-score was -0.297.
In the case of `CCN(CC)S(=O)(=O)c1cccc2cccnc12` it was -0.151.
`CC(=O)N1CSCC1C(=O)O` (configuration not stated) registered a z-score of 1.62.
Regarding `Cc1ccc(Nc2ncnc3sc(C)c(C)c23)cc1C`, the z-score worked out at 0.147.
On to `Cn1c(N)c(C(=O)c2cc(-c3ccccc3)nc3ccccc23)c(=O)n(C)c1=O`, for which the z-score was -0.768.
`COCCNc1c(-c2ccc(O)cc2)nc2ccc(Cl)cn12` gave a z-score of -0.32.
Consider `O=C(CN1C(=O)/C(=C\C=C\c2ccccc2)SC1=S)Nc1ccc(F)cc1`, for which the z-score was -0.209.
`CCOc1ccc(NC(=O)Cc2c(O)c3ccccc3[nH]c2=O)cc1` came in with a z-score of -0.313.
`CN(c1ccc(C(=O)N2CCc3ccccc3C2)cc1)S(C)(=O)=O` gave a z-score of -0.179.
On to `COc1ccc(NC(=O)CC2COc3ccccc3O2)c(OC)c1` (configuration not stated), for which the z-score is -0.37.
Compound `CC(=O)Nc1nnc(SCC(=O)c2ccc3c(c2)Cc2ccccc2-3)s1` yielded a z-score of -0.175.
For the compound `O=C(Nc1nccs1)c1cc2c(s1)-c1ccccc1OC2`, the z-score was -0.242.
`CCOc1cc(CNCCO)cc(Br)c1OCc1ccc(Cl)cc1` gave a z-score of 0.61.
For `O=C(CN1C(=O)C2C3C=CC(C3)C2C1=O)NCCN1CCCc2ccccc21` (configuration not stated), the z-score was 0.149.
As for `CCOC(=O)c1ccc(NC(=O)C(=O)NCC2CCCO2)cc1` (configuration not stated), the z-score came to 0.691.
With `NC(=O)C1CCN(C(=O)c2cc3n(n2)C(C(F)(F)F)CC(c2ccco2)N3)CC1` (configuration not stated), the z-score is -0.428.
Compound `Cn1c(=O)c2c(nc(NC3CCCCC3)n2CC(=O)C23CC4CC(CC(C4)C2)C3)n(C)c1=O` came in with a z-score of -0.778.
`CN(C)c1ccc(/C=C/C(=O)c2ccccc2)cc1[N+](=O)[O-]` registered a z-score of -0.207.
As for `CCC(=O)Nc1nc2ccccc2n1CCN1CCOCC1`, the figure is -0.386; as for `Cc1ccc(C(=O)CSc2nnnn2C(C)C)c(C)c1`, -0.197.
`CCCc1nc(NCC2CCCO2)c2nnn(Cc3ccccc3)c2n1` (configuration not stated) had a z-score of -0.932.
The compound `CC(NC(=O)COC(=O)CC(c1ccccc1)c1ccccc1)c1ccccc1` (configuration not stated) gave a z-score of -0.46.
As for `Cc1ccc(S(=O)(=O)N2CCN(CCO)CC2)cc1-c1nnc2c3ccccc3c(C)nn12`, the figure is -0.156; as for `O=C(c1ccc2snnc2c1)N1CCSCC1`, -0.464.
In the case of `CCOc1ccc(S(=O)(=O)Nc2ccccc2C(=O)Nc2ccccc2N2CCOCC2)cc1` it was 0.13; in that of `Cc1cc(Oc2nnnn2-c2ccccc2)ccc1Cl`, -0.263; in that of `CCOC(=O)C(=O)c1csc(NC(=O)COc2ccc(N(C)S(=O)(=O)c3ccc(F)cc3)cc2)n1`, -0.357.
In the case of `Cc1ccc(-c2nc3ccccc3[nH]2)cc1NC(=O)c1ccco1` it was -1.14.
As to `Cc1cc(SCc2cc(=O)[nH]c3ccccc23)nc2ccccc12`, the z-score is 0.198.
In turn, `FC(F)(F)c1cc(-c2ccco2)nc(NCc2cccnc2)n1` came in with a z-score of -0.622.
As to `CCCCN(C)CCCNC(=O)c1cccc(N2CCCC2=O)c1`, the z-score is 0.34.
In turn, `O=C(Oc1ccccc1)c1c(Cl)cccc1P(=O)(O)O` registered a z-score of -0.266.
`Cc1ccc2nc3c(cc(C(=O)NCC4CCCO4)n3C)c(=O)n2c1` (configuration not stated) registered a z-score of 0.216.
`CCOc1ccc(N(C(C)=O)c2nc(C)cc(C)c2C#N)cc1` gave a z-score of 0.0885.
In turn, `Cc1ccc(S(=O)(=O)N(CC(=O)N2CCC(C)CC2)c2cccc(C)c2)cc1` had a z-score of -0.667.
Compound `Cc1ccc(C)c(SCC(=O)OCC(=O)Nc2ccc(S(=O)(=O)N3CCOCC3)cc2)c1` gave a z-score of -0.283.
`O=C(Cn1nc(-c2ccccc2)c2ccccc2c1=O)Nc1cccnc1` yielded a z-score of -0.099.
For `CN(c1ccc(OCC(=O)OCC(=O)Nc2ccc(F)cc2)cc1)S(=O)(=O)c1ccc(Cl)cc1`, the z-score was -0.231.
Regarding `Cc1cc2c(=O)[nH]c(Cc3ccccc3)nc2s1`, the z-score was -0.0665.
For `CCOC(=O)c1c(C)c(C(=O)NCCN2CCOCC2)c(C)n1C`, the z-score worked out at 0.127.
Take `COc1ccccc1C(=O)Nc1cccc(N(C)S(C)(=O)=O)c1`: the z-score was -0.0215.
For the compound `CCn1nc(C)c(/C=C/C(=O)Nc2ccc(C)cc2C)c1C`, the z-score amounted to 1.11.
Compound `Cc1cccc(C(=O)OCC(=O)Nc2nccs2)c1` came in with a z-score of 0.0368.
In turn, `Cc1ccc[n+](CC(=O)Nc2ccc([N+](=O)[O-])cc2Cl)c1` came in with a z-score of 0.135.
As to `O=S(=O)(c1ccc(Cl)cc1)c1ccccn1`, the z-score turned out to be 0.41.
